# From the supplement of paper PMC9334596
# Where “and” joins values, the source holds several entries; their conditions need not be identical. Identical values can stand only once. Over roughly 5,300 compounds, “PER2::LUC luminescence relative to vehicle control” has its median near 0.96; the highest 2% begin near 1.3. This is one part of the list.
# Test system: mPer2Luc MEF
# Assay: PER2::LUC luminescence relative to vehicle control (fold of vehicle); higher = higher PER2::LUC reporter signal
# Conditions: 10 µM
# How it was run: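 The value is PER2::LUC luminescence expressed as fold of vehicle control. Mouse embryonic fibroblasts carrying the mPer2Luc reporter were seeded at ~3000 cells per well in 384-well plates and grown in DMEM with 10% FBS at 37 °C and 5% CO2. Compounds from commercial libraries were added at 10 μM 48 h after seeding, and luminescence was read with the ONE-Glo luciferase assay system 24 h and 30 h after treatment, followed by an alamarBlue viability assay.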
SMILES,PER2::LUC luminescence (time after treatment 24 h),PER2::LUC luminescence (time after treatment 30 h)
C[C@H](NC[C@H](O)CP(=O)(O)Cc1ccccc1)c1ccc(Cl)c(Cl)c1,1.09,1
CC(=O)c1cc([N+](=O)[O-])c(Sc2ccc(F)cc2F)s1,0.964,0.921
NCCC(O)(P(=O)(O)O)P(=O)(O)O,1.08,1.05
N[C@@H](Cc1c[nH]cn1)C(=O)O,1.11,1.03
Cc1ccc2nc(NCCN)c3ncc(C)n3c2c1,0.083,0.227
Cc1c(NC(=O)OC[C@@H]2COCCN2)cn2ncnc(Nc3ccc4c(cnn4Cc4cccc(F)c4)c3)c12,0.864,0.784
CN1C(=O)C[C@@H](C(=O)N[C@@H](Cc2c[nH]cn2)C(=O)N2CCC[C@H]2C(N)=O)NC1=O,1.13,0.994
CC(C[N+](C)(C)C)OC(N)=O (centres undefined),1.02,1.04
Nn1nnc2ccccc21,1.04,1.06
CN(C)CCCC1(c2ccc(F)cc2)OCc2cc(C#N)ccc21 (centres undefined),0.733,0.753
CN(C)[C@@H](CCOc1cccc2ccccc12)c1ccccc1,0.775,0.788
COC[C@@H](c1ccc(C(F)(F)F)cc1)N1CCN(C2(C)CCN(C(=O)c3c(C)ncnc3C)CC2)C[C@@H]1C,1.02,0.868
Cc1onc(-c2ccccc2)c1C(=O)N[C@@H]1C(=O)N2[C@@H]1SC(C)(C)[C@@H]2C(=O)O,0.917,1.16
CC(C)c1noc(N2CCC(COc3ccc(-c4ccc(S(C)(=O)=O)cc4)nc3)CC2)n1,1.05,1.12
O=CN1CC/C(=C/c2ccc3c(c2)OCO3)C1=O,1.18,1.26
COc1ccccc1CNCCCCCCNCCCCCCCCNCCCCCCNCc1ccccc1OC,0.757,0.981
OCCOCCN1CCN(C(c2ccccc2)c2ccccc2)CC1,0.939,0.9
CC[C@H](Nc1ncnc2[nH]cnc12)c1nc2cccc(F)c2c(=O)n1-c1ccccc1,0.89,0.786
CCC(=O)NCC[C@@H]1CCc2ccc3c(c21)CCO3,0.981,0.994

SMILES,PER2::LUC luminescence (time after treatment 24 h),PER2::LUC luminescence (time after treatment 30 h)
COC1=CC(=O)C[C@@H](C)[C@]12Oc1c(Cl)c(OC)cc(OC)c1C2=O,1.05 and 0.887,0.893 and 0.895
CC[C@H](/C=C/[C@@H](C)[C@H]1CC[C@H]2[C@@H]3CCC4=CC(=O)CC[C@]4(C)[C@H]3CC[C@]12C)C(C)C,0.932,0.934
CC(C)(C)c1cc(/C=C(\C#N)C(N)=S)cc(C(C)(C)C)c1O,0.935,0.893
COc1c2c(cc3occ(-c4ccc5c(c4)OCO5)c(=O)c13)OC(C)(C)C=C2,0.833,0.876
COc1ccc(-c2coc3cc(O)cc(O)c3c2=O)cc1,1.83,1.97
O=C(O)/C=C/c1ccc(-c2ccc(O)c(C34CC5CC(CC(C5)C3)C4)c2)cc1,0.735,0.721
NS(=O)(=O)NCCNc1nonc1/C(=N/O)Nc1ccc(F)c(Br)c1,1.01,1.07
O[C@@H](COc1cccc2ncccc12)CN1CCN(C2c3ccccc3[C@@H]3[C@H](c4ccccc42)C3(F)F)CC1 (some centres undefined),0.96,0.7
CNC(=O)c1c(I)c(NC(C)=O)c(I)c(C(=O)O)c1I,0.967,0.924
O=S(=O)(NCCNC/C=C/c1ccc(Br)cc1)c1cccc2cnccc12,0.641,0.523
N=C1S/C(=C\c2ccc(-c3ccc4c(c3)C(=O)NC4=O)o2)C(=O)N1c1ccc(Br)cc1,0.976,0.882
OCC(O)CN1CCN(c2ccccc2)CC1 (centres undefined),0.992,1.05
CC(C)=CC[C@@H](OC(=O)C=C(C)C)C1=CC(=O)c2c(O)ccc(O)c2C1=O,1.03,1.03
CC(C)CCNc1ncccc1C(=O)N1CCN(Cc2ccccc2)CC1,1.09,1.07
O=C(Nc1ccc(Cl)cc1)c1cc(Br)ccc1O,0.822,0.728
COc1ccccc1N1CCN(CCN2C(=O)CC3(CCCC3)CC2=O)CC1,1.01,0.951
CN1Cc2sccc2C(c2ccc(O)c(O)c2)C1 (centres undefined),1.09,0.974
COc1cc2c(cc1OC)C(=O)OC2,0.85,0.816
Fc1ccc(-n2cc(CCCCN3CCC4(CC3)OCc3ccccc34)c3ccccc32)cc1,0.561 and 0.532,0.617 and 0.573

SMILES,PER2::LUC luminescence (time after treatment 24 h),PER2::LUC luminescence (time after treatment 30 h)
CN(C)CCC(c1ccc(Cl)cc1)c1ccccn1 (centres undefined),0.912 and 0.863,0.974 and 0.869
C[C@H](O)C(=O)C1=Nc2c(nc(N)[nH]c2=O)NC1,1.14,1.11
COc1cc(N)c(Cl)cc1C(=O)NC1CCN(CCCOc2ccc(F)cc2)CC1OC (centres undefined),0.817,0.668
COc1ccc2cc1Oc1ccc(cc1)C[C@H]1c3c(cc4c(c3Oc3cc5c(cc3OC)CCN(C)[C@@H]5C2)OCO4)CCN1C,0.267,0.416
CC(O)CC(C)(C)O (centres undefined),1.2 and 0.943,0.89 and 0.9
CC(C)(C)NC(=O)[C@@H]1CN(Cc2cccnc2)CCN1C[C@@H](O)C[C@@H](Cc1ccccc1)C(=O)N[C@H]1c2ccccc2C[C@H]1O,0.907,0.997
O=C(O)c1ccccc1Nc1cccc(OCc2ccc3ccccc3n2)c1,0.958,0.844
CC(=O)NCCc1c(Cc2ccccc2)[nH]c2ccccc12,0.891,0.965
O=C(O[C@@H]1C[C@@H]2C[C@H]3C[C@H](C1)N2CC3=O)c1c[nH]c2ccccc12,0.947,0.901
COc1ccc(COc2cc3oc(=O)c4cc(C(C)O)ccc4c3cc2OC)cc1 (centres undefined),1.05,0.907
Cn1c(=O)c2[nH]c(Br)nc2n(C)c1=O,0.903,0.929
NC(=O)[C@@H]1CCCN1C(=O)[C@H](Cc1cnc[nH]1)NC(=O)[C@@H]1CCC(=O)N1,1.13,1.22
NC1=N[C@@]2(c3cc(NC(=O)c4ccc(F)cn4)ccc3F)COC[C@H]2CS1,0.905,0.926
COc1cc2ncnc(Nc3cccc(O)c3)c2cc1OC,0.659,0.697
Nc1nc(=O)c2c([nH]1)NCC(CNc1ccc(C(=O)N[C@@H](CCC(=O)O)C(=O)O)cc1)=N2,1.06,0.985
COC(=O)Nc1nc2cc(C(=O)c3ccc(F)cc3)ccc2[nH]1,1.16,0.954
COc1ccc(CC(=O)c2ccc(O)cc2O)cc1,1.63,1.51
CC(=O)O[C@H]1Cc2ccccc2N(C(N)=O)c2ccccc21,1.12,0.914
CCOC(=O)c1ccc(O)cc1,1.06 and 0.859,1.02 and 0.79
